This is an account of results in publication PMC7612757 (Science (New York, N.Y.), 2022).

The target in this assay is CENP-U (human, UniProt Q71F23 1-418). In words: cryo-EM structure.
Chain of UniProt Q71F23 (Q71F23 whole entry): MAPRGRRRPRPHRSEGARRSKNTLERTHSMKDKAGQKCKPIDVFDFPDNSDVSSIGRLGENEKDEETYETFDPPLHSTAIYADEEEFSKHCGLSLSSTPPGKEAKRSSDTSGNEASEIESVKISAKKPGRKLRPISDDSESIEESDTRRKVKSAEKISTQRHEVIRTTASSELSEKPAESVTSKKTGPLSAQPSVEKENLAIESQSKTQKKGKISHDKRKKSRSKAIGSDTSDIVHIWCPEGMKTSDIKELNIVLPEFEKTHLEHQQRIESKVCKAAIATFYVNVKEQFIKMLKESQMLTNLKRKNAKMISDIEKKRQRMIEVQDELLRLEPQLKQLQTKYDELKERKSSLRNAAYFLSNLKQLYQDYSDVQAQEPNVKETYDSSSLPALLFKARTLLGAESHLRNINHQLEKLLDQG

B1: CENP-Q (natural protein)
chain: not shown
Take B1: the binding result is “binds”.
